Key:
human Ang2 [1] = target: T1, human Ang2 (human, UniProt O15123 19-496); assay: competition ELISA: blocking of biotinylated human Ang2 binding to plate-coated human Tie2-Fc
T1 construct: Bought protein; also called hAng2; human angiopoietin-2
T1 sequence: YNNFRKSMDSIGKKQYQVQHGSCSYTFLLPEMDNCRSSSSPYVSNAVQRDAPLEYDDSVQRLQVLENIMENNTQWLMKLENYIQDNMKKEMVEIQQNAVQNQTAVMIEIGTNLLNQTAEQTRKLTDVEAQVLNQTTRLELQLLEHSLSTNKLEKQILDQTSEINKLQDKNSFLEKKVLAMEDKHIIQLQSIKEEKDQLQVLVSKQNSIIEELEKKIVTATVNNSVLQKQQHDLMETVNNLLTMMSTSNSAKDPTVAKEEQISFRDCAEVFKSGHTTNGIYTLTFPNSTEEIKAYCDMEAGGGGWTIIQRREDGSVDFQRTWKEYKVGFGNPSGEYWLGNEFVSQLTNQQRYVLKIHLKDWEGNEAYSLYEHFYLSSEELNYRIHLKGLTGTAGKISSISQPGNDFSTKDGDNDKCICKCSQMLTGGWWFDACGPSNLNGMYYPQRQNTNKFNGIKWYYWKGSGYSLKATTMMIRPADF

human VEGFA165 [2] = target: T2, human VEGFA165 (human, UniProt P15692 207-395); assay: Biacore SPR at 25 C; compound captured on Protein A, hVEGFA165 as analyte; 1:1 fit; off-rate too slow to quantitate accurately
T2 construct: Recombinant soluble protein; also called hVEGFA165; rhVEGFA
T2 sequence: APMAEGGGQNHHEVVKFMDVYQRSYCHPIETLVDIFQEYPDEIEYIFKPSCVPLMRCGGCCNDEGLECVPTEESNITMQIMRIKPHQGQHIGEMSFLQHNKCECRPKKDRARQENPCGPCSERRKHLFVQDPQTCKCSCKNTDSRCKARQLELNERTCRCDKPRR
Experimental: (§1) Immobilization of soluble Protein A (Calbiochem #539202) on a CM4 (GE Healthcare #BR-1005-34) or CMS (GE Healthcare #BR-1000-99) is prepared using EDC/NHS amine coupling method (GE Healthcare #BR-1000-50). Briefly, the surfaces of all four flow cells is activated by injecting a 1:1 mixture of EDC/NHS for seven minutes at 10 μL/min After which, soluble protein A is diluted to 50-100 μg/mL in 10 mM acetate buffer, pH 4.5, and immobilized for seven minutes onto flow cell (Fc) 2, 3 or 4 at a flow rate of 10 μL/min. Unreacted sites still remaining on the chip surface are blocked with a seven minute injection of ethanolamine at 10 μL/min Running buffer is HBS-EP+ (GE Healthcare #BR-1006-69) with addition of 100 mM NaCl. Compound samples are prepared at 1 μg/mL by dilution into running buffer. […] Resultant data is processed using standard double-referencing and fit to a 1:1 binding model using Biacore 2000 Evaluation software, version 4.1, to determine the association rate (kₒₙ, M⁻¹s⁻¹ units), dissociation rate (koff, s⁻¹ units). Calculation of the equilibrium dissociation constant (KD) is calculated from the following relationship, KD=koff/kₒₙ, and is presented in molar units.

human VEGFA165 [3] = target: T2, human VEGFA165; assay: Biacore SPR at 25 C; compound captured on Protein A, hVEGFA165 as analyte; value called an upper limit
Experimental: as §1

human VEGFA165 [4] = target: T2, human VEGFA165; assay: KinExA kinetic exclusion assay at 25 C, solution equilibrium with hVEGFA165
Text: (§2) A KinExA 3200 instrument is used to measure binding kinetics to human VEGFA165. Briefly, human VEGFA165 is covalently coupled to NHS-activated sepharose beads (GE Healthcare #17-0906-01) and the binding of free Mab to the conjugated beads is detected on the KinExA 3200. […] (depending on the temperature analyzed) in Casein Blocking Buffer (ThermoFisher #37528). […] It follows that the relative intensity of signal generated in these steps is proportional to the degree of free/uncomplexed compound present in each solution tested. The resultant composite set of fluorescent intensities is plotted as a function of the concentration of human VEGFA165 present in each discrete sample and fit using the N-curve analysis software (KinExA) to a standard two state binding model to determine KD for the given MOI. Statistical confidence is reported by calculation of the 95% confidence intervals.

human Ang2 [5] = target: T1, human Ang2; assay: Biacore SPR at 25 C; compound captured on Protein A, hAng2 as analyte; 1:1 fit
Experimental: as §1

human VEGFA165 [6] = target: T2, human VEGFA165; assay: cell-based or functional assay
human VEGFA165 [7] = target: T2, human VEGFA165; assay: Biacore SPR at 25 C; compound captured on Protein A, hVEGFA165 as analyte; 1:1 fit
Experimental: as §1

human VEGFA165 [8] = target: T2, human VEGFA165; assay: KinExA kinetic exclusion assay at 37 C, solution equilibrium with hVEGFA165
Text: as §2

B1: Compound A (bispecific antibody, human IgG4 S228P, kappa, F234A L235A)
heavy: [about 100 residues not spelt out]DPSDSSSWYFAFDIWGQGTTVTVSSASTKGPSVFPLAPCSRSTSESTAALGCLVKDYFPEPVTVSWNSGALTSGVHTFPAVLQSSGLYSLSSVVTVPSSSLGTKTYTCNVDHKPSNTKVDKRV[human IgG4 Fc with S228P F234A L235A (EU numbers) not spelt out]GGGSGGGGSGGGGSQVQLVQSGAEVKKPGASVKVSCKASGYSFTDYNMVWVRQAPGQCLEWMGYIDPYNGGTGYNQKFEGRVTMTTDTSTSTAYMELRSLRSDDTAVYYCARTRDRYDVWYFDVWGQGTLVTVSSGGGGSGGGGSGGGGSGGGGSGGGGSDIQMTQSPSSVSASVGDRVTITCKASQDVYIAVAWYQQKPGKAPKLLIYWASTRDTGVPSRFSGSGSGTDFTLTISSLQPEDFATYYCHQYSSYPPTFGCGTKVEIK
light: DIVMTQSPATLSVSPGQRATLSCRASQNIRNNLAWYQQKRGQAPRLLIYGASTRATGIPDRFSGSGSGADFTLTISKLEPEDFAVYYCQQYGSSPRTFGQGTKVDIKRTVAAPSVFIFPPSDEQLKSGTASVVCLLNNFYPREAKVQWKVDNALQSGNSQESVTEQDSKDSTYSLSSTLTLSKADYEKHKVYACEVTHQGLSSPVTKSFNRGEC
notes: also called Mab-scFv fusion
IC50 (human Ang2 [1]): 118 pM | koff (human VEGFA165 [2]): 0.000203 s⁻¹ | Kd (human VEGFA165 [3]): ≤ 83.2 pM | Kd (human VEGFA165 [4]): 26.6 pM | Kd (human Ang2 [5]): 136 pM | koff (human Ang2 [5]): 3.2e-05 s⁻¹ | kon (human Ang2 [5]): 240000 M⁻¹ s⁻¹ | IC50 for inhibition of VEGFA165 induced proliferation of ECFC (3H thymidine) (human VEGFA165 [6]): 1180 pM | IC50 for inhibition of VEGFA induced cord formation in ADSC/ECFC co-culture (total tube area) (human VEGFA165 [6]): 1680 pM | kon (human VEGFA165 [7]): 2.44e+06 M⁻¹ s⁻¹ | Kd (human VEGFA165 [8]): 84 pM

Source: US20160215045A1 (Eli Lilly, published 2016)
